Among all 350,000 compounds or so, about 9,900 (2.8%) were called active. This list was built around the results that the source calls inconclusive (neither active nor inactive); the mix of calls is not that of the screen. Calls come from the whole dose curve; as a rule, active = well fitted activation curve with a large enough effect; inconclusive = small, poorly fitted or top-dose-only effect; inactive = no such curve, though single readings can be large or run the other way. No potency is given beside an inconclusive call; the fits are too rough.
experiment: A quantitative high throughput screen for small molecules that induce DNA re-replication in MCF 10a normal breast cells.; note: nearly all actives have a fitted effect of over 50% in size; conditions: MCF 10A DNA re-replication, Hoechst nuclear intensity, 48 h; series mostly up to 46.1 µM
Potency is the fitted concentration of half-maximal effect; tags give direction and shape of the fitted curve.

Compound | Potency
Cc1sc2nc(SCc3ccccc3)n(Cc3ccco3)c(=O)c2c1C | active: 9.2 µM
O=S(=O)(Nc1cccnc1Cl)c1ccc(F)cc1 | inactive
COc1ccc(O)c(C(=O)c2cnn(-c3ccc(Cl)cc3)c2)c1 | inconclusive [activator, partial curve, poor fit]
Fc1ccc(-c2cc3nc(-c4ccccc4)cc(N4CCOCC4)n3n2)cc1 | inconclusive [activator, full curve]
CCN(CC)CC(=O)c1c[nH]c2ccc(OC)cc12 | inconclusive [activator, single point]
CCN(Cc1ccccc1)C(=O)COC(=O)c1cc(S(=O)(=O)Nc2c(C)n(C)n(-c3ccccc3)c2=O)ccc1C | inconclusive [activator, partial curve, poor fit]
COc1ccccc1OCC(=O)N(Cc1nc(-c2ccc(Cl)cc2)no1)C(C)C | inactive
Nc1cc(OC(=O)c2ccccc2Br)nn1S(=O)(=O)c1ccccc1 | inconclusive [activator, single point]
COc1cccc(CNC(=O)CNC(=O)N2CC(=O)Nc3ccccc32)c1 | inconclusive [activator, single point]
C/C(CC(=O)Nc1ccc(Cl)c(C(F)(F)F)c1)=N\NC(=O)c1cc2ccccc2cc1O | inconclusive [activator, single point]
Cc1ccc(-c2nnn3c2nc(NC(C)C)c2ccccc23)cc1 | active: 16.4 µM
c1ccc2sc(NCC3CCCO3)nc2c1 (centres undefined) | inactive
COc1ccccc1N1CCN(C(CNC(=O)c2ccco2)c2cccnc2)CC1 (centres undefined) | inactive
COc1ccc(CCNC(=O)c2ccccc2OCc2ccccc2)cc1 | inconclusive [activator, partial curve, poor fit]
CC(NC(=O)c1ccc(OC2CCN(C(=O)c3cccnc3)CC2)cc1)C1CC1 (centres undefined) | inconclusive [activator, partial curve, poor fit]
CN(CCCNC(=O)CSc1cc(=O)n(C)c2ccc(Cl)cc12)Cc1ccccc1 | inactive
O=C(NC(=S)Nc1ccc(N2CCOCC2)cc1)c1ccc(Cl)cc1 | inactive
COc1ccccc1Nc1nc(N)nc(CN2CCN(Cc3ccc4c(c3)OCO4)CC2)n1 | inconclusive [activator, full curve, poor fit]
COc1cc2c(cc1Cl)/C(=C\CCN(C)C)c1ccccc1S2 | inconclusive [activator, single point]
CC1=C(OC(=O)c2ccccc2)C(C)(C)C(c2ccc(Br)cc2)OC1=O (centres undefined) | inconclusive [activator, single point]
C=CCN1C(=O)C2(OCCCO2)c2cccc(C)c21 | inconclusive [activator, single point]
CS(=O)(=O)Nc1cccc(C2=NN(C(=O)c3ccc(F)cc3)C(c3cccs3)C2)c1 (centres undefined) | inconclusive [activator, partial curve, poor fit]
CCN1CCN(Cc2c(O)ccc3c2O/C(=C\C=C\c2ccccc2)C3=O)CC1 | inconclusive [activator, partial curve, poor fit]

Compound | Potency
CCOc1ccc(CN(C)C(=O)CNC(=O)C2CCCCC2)cc1OC | inactive
Cc1ccc(N2C(S)=C(C#N)C(=O)NC2c2cccs2)cc1 (centres undefined) | inconclusive [activator, single point]
CC1=Nc2ccccc2N=C(NC(=O)CSc2nnnn2-c2ccccc2)C1c1ccccc1 (centres undefined) | inactive
Cc1ccc(CNC(=O)CCC2CCCN(C(=O)CCC(F)(F)F)C2)o1 (centres undefined) | inconclusive [activator, partial curve, poor fit]
C=CCn1c(C)cc(C2=NNC(=NCc3ccccc3)SC2)c1C | inconclusive [activator, single point]
COC(=O)Cn1c2ccccc2c2nc3ccccc3nc21 | inactive
Cc1cccc(NCC(=O)N/N=C\c2cccc(Oc3ccccc3)c2)c1 | inconclusive [activator, single point]
O=C(NNC(=O)c1ccc([N+](=O)[O-])o1)c1ccccc1 | inconclusive [activator, single point]
Cc1ccc(S(=O)(=O)n2nc(OC(=O)C(C)(C)C)cc2N)cc1 | inconclusive [activator, single point]
O=C(O)CC(Cn1cnnn1)c1ccccc1 (centres undefined) | inconclusive [activator, single point]
CC1=C(C#N)C(c2cccnc2)C2=C(N1)c1ccccc1C2=O (centres undefined) | inactive
CCS(=O)(=O)C1=NSC2=NC(=O)/C(=C\c3ccc(OS(=O)(=O)c4ccccc4)c(OC)c3)C(=N)N21 | inconclusive [activator, partial curve, poor fit]
CCN1CCN(c2cc(C)c3cc(NC(=S)NCc4cccs4)ccc3n2)CC1 | active: 7.31 µM
COc1ccc2oc(=O)cc(CN(C)Cc3ccccc3)c2c1 | inconclusive [activator, partial curve, poor fit]
Cc1cccc(/C=C/c2onc(C)c2S(=O)(=O)N2CCC(C(=O)N3CCC(C)CC3)CC2)c1 | inconclusive [activator, partial curve]
Cc1cc2nc(-c3ccc(SCC(=O)Nc4nccs4)nc3)[nH]c2cc1C | inconclusive [activator, single point]
Cc1nn(-c2ccccc2)c(Cl)c1/C=C1\SC(=S)NC1=O | active: 10.3 µM
COc1cc2c(cc1OC)C(c1ccccc1)NC(C)(C)C2 (centres undefined) | inconclusive [activator, single point]
CCCCNC(=O)CCCN1C(=O)c2cccnc2Sc2ccccc21 | inconclusive [activator, single point]
CCN(CC)C(=O)c1ccc2nc3ccccc3nc2c1 | inconclusive [activator, single point]
O=C(c1ccc(N2CCCC2)c([N+](=O)[O-])c1)N1CCc2ccccc2C1 | inconclusive [activator, full curve, poor fit]
Cc1cccc(N/C(N)=N/c2nc(C(F)(F)F)cc(=O)[nH]2)c1C | inconclusive [activator, partial curve, poor fit]
Cc1ccc(NC(=O)c2cccc(S(=O)(=O)N3CCCC3)c2)nc1 | inconclusive [activator, partial curve, poor fit]

Compound | Potency
O=C(Nc1ccc2c(c1)OCCO2)C1CCN(S(=O)(=O)c2ccc3c(c2)OCCO3)CC1 | inactive
N#CC(c1ccc(O)cc1)N1CCN(C(C#N)c2ccc(O)cc2)CC1 (centres undefined) | inactive
Cc1c(OC(C)C(=O)NCC(O)c2ccccc2)ccc2c3c(c(=O)oc12)CCC3 (centres undefined) | inactive
Cc1ccc(S(=O)(=O)N(C)C)cc1NC(=O)c1cc(S(=O)(=O)N2CCCCC2)ccc1N1CCOCC1 | inactive
CCOc1ccccc1N1CCN(C(=O)CCCc2nc3ccccc3s2)CC1 | inconclusive [activator, single point]
CC(C)CN1C(=O)C(=O)N(CC(=O)NC(C)CCc2ccccc2)C1=O (centres undefined) | inconclusive [activator, single point]
CCC1=NN(C(=O)c2ccccc2O)C(O)(c2ccccc2)C1 (centres undefined) | inconclusive [activator, single point]
CN(C)CCCN(C(=O)CCSc1ccccc1)c1nc2cc3c(cc2s1)OCO3 | inconclusive [activator, single point]
C[C@H](NC(=O)c1ccc(C(C)(C)C)cc1)C(=O)N1CCN(C/C=C/c2ccccc2)CC1 | inconclusive [activator, single point]
O=C(CSc1nc(O)cc(=O)[nH]1)N1c2ccccc2Sc2ccccc21 | inactive
COc1cccc(-c2onc3ccc(C(=O)/C=C/N(C)C)cc23)c1 | inconclusive [activator, single point]
O=C(NCc1ccc2c(c1)OCO2)c1ccc(S(=O)(=O)N2CCCCC2)cc1 | inactive
Cc1cc(=O)[nH]c2nnc(SCC(=O)N3CC(C)OC(C)C3)n12 (centres undefined) | inconclusive [activator, partial curve, poor fit]
COc1ccccc1Nc1ccc2nonc2c1[N+](=O)[O-] | inconclusive [activator, single point]
c1ccc(-c2nc(NCC3CCCO3)c3ccccc3n2)nc1 (centres undefined) | inconclusive [activator, partial curve, poor fit]
Cc1ccc(S(=O)(=O)c2nc(-c3ccco3)oc2SCC(=O)NCC2CCCO2)cc1 (centres undefined) | inconclusive [activator, single point]
O=C(N/N=C/c1c[nH]c2ccccc12)c1ccc(Br)cc1 | inactive
CCC(=O)N1CCc2cc(S(=O)(=O)NCCC(=O)N3CCN(c4cccc(C)c4)C(C)C3)ccc21 (centres undefined) | inactive
CCN1C(=O)S/C(=C/c2ccc(Sc3nc4ccccc4[nH]3)o2)C1=O | inconclusive [activator, single point]
O=C1c2ccccc2-c2cccnc21 | inactive
CC(Sc1ccc(Cl)cc1)C(=O)NNC(=O)c1ccco1 (centres undefined) | inactive
Cc1ccc(C(=O)CCc2ccc(N)cc2)cc1 | inactive
COc1cccc(N/C(=N/C(=S)Nc2ccc(C)cc2C)Nc2nc(C)cc(C)n2)c1 | inconclusive [activator, partial curve, poor fit]

Source: PubChem BioAssay AID624296 (National Center for Advancing Translational Sciences (NCATS), 2012)
